Assay results reported in article PMC4336329 (PLoS ONE, 2015).
About 14,000 (4.5%) of roughly 310,000 compounds showed an effect of 50% or more. Effects have a minus sign here. The list shows a part of the results.

Target: human ether-à-go-go-related gene (hERG) potassium channel (human, UniProt Q12809)
Test: primary screen, population patch clamp on CHO cells stably expressing hERG
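Note: peak tail current of the secondary pulse compared with the same well before compound.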

human ether-à-go-go-related gene (hERG) potassium channel, sequence (Q12809 whole entry, looked up): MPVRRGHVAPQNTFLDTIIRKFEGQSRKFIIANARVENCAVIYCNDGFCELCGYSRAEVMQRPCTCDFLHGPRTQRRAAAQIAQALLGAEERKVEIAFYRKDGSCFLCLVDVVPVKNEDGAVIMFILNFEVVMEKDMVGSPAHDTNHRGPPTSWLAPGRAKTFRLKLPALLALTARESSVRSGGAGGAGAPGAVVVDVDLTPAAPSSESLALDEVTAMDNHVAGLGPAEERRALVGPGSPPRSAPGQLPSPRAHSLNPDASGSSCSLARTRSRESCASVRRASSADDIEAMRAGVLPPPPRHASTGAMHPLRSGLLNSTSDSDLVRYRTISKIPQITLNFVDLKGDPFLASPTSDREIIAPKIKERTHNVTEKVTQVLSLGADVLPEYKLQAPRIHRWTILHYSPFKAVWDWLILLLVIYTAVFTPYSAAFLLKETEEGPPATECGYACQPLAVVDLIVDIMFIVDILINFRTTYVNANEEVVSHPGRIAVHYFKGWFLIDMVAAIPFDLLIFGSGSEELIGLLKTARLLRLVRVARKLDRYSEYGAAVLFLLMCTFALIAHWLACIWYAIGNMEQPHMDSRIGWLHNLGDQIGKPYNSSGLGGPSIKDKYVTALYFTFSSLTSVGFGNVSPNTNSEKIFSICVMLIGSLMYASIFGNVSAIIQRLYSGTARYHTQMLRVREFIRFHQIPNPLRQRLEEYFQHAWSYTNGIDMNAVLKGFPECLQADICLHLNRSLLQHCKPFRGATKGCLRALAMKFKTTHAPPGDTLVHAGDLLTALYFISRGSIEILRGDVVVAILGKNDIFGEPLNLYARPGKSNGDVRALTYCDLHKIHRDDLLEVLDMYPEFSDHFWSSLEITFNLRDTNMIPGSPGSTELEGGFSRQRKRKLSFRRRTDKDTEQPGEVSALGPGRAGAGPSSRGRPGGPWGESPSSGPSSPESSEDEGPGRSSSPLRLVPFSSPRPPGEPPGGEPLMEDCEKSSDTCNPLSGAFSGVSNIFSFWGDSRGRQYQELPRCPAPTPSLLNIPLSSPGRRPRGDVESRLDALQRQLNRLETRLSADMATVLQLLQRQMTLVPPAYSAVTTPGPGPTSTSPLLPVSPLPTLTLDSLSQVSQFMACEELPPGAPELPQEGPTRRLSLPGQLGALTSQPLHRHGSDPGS

Which “hERG current change (%, negative = inhibition) at 10uM” value does the source give for `CCN(CC)c1ccc(CNCCc2ccc(F)cc2)cc1.Cl` here?
Its value is -58.8%.

Which “hERG current change (%, negative = inhibition) at 10uM” value does the source give for `O=c1c([N+](=O)[O-])c(O)c2ccccc2n1Cc1ccccc1` here?
The value was 18.2%.

How did the “hERG current change (%, negative = inhibition) at 10uM” value turn out when `Cc1ccc(S(=O)(=O)Nc2ccc(C(=O)N3CCOCC3)cc2)cc1` was run?
Its value is 20.9%.

Which “hERG current change (%, negative = inhibition) at 10uM” value does the source give for `CCOC(=O)c1c(C)[nH]c(C)c1S(=O)(=O)N(C)CC(=O)Nc1ccccc1F` here?
Its value is -2.7%.

Which “hERG current change (%, negative = inhibition) at 10uM” value does the source give for `CCOC(=O)CN(Cc1ccccc1)S(=O)(=O)c1ccc(NC(C)=O)cc1` here?
Its value is -27.9%.

`CCCCn1c(=O)n(CC(=O)Nc2ccc(C)c(Cl)c2)c(=O)c2c1ncn2Cc1ccco1` was tested. Which “hERG current change (%, negative = inhibition) at 10uM” value did it give?
Its value is -6.22%.

How did the “hERG current change (%, negative = inhibition) at 10uM” value turn out when `COc1cc(CNc2ccc3[nH]c(=O)[nH]c3c2)ccc1OCc1ccc(C)cc1` was run?
Its value is 14.1%.

`COc1ccc(-c2nc(N)n(C(C)=O)n2)cc1` was tested. Which “hERG current change (%, negative = inhibition) at 10uM” value did it give?
Its value is -3.64%.

With `COc1ccc(S(=O)(=O)NC(C)C(=O)Nc2ccc3c(c2)OCCO3)cc1OC` (centres unmarked) as the molecule, how does the “hERG current change (%, negative = inhibition) at 10uM” value read?
Its value is 5.02%.

For `Cc1sc2nc(C)n(/N=C/c3ccc(O)cc3O)c(=O)c2c1C`, which “hERG current change (%, negative = inhibition) at 10uM” value is on record?
The value was 19.1%.

Which “hERG current change (%, negative = inhibition) at 10uM” value does the source give for `Cc1cccc(C(=O)OC(C)C(=O)NC(=O)NC2CCCCC2)c1O` (centres unmarked) here?
The value was 7.96%.

With `COC(=O)C1C2C=CC(C3CC23)C1C(=O)OCC(=O)c1ccccc1` (centres unmarked) as the molecule, how does the “hERG current change (%, negative = inhibition) at 10uM” value read?
Its value is 4.29%.

How did the “hERG current change (%, negative = inhibition) at 10uM” value turn out when `CSCCC(NS(=O)(=O)c1ccc(Cl)cc1)C(=O)OCC(=O)NC12CC3CC(CC(C3)C1)C2` (centres unmarked) was run?
Its value is 11.5%.

`O=C(CSCc1ccc(Cl)cc1)Nc1ccc2c(c1)OCO2` was tested. Which “hERG current change (%, negative = inhibition) at 10uM” value did it give?
Its value is -4.62%.

`COc1ccccc1-n1c(C)cc(/C=C2\C(=N)N3N=C(CC(=O)N4CCOCC4)SC3=NC2=O)c1C` was tested. Which “hERG current change (%, negative = inhibition) at 10uM” value did it give?
Its value is 6.12%.

Which “hERG current change (%, negative = inhibition) at 10uM” value does the source give for `O=C(NCCCN1CCOCC1)c1cc(-c2ccc(Br)cc2)nc2ccccc12` here?
The value was -39.7%.

For `CCc1c(C)sc(NC(=O)OC)c1C(=O)N1CCOCC1`, which “hERG current change (%, negative = inhibition) at 10uM” value is on record?
The value was -7.69%.

For `CCOC(=O)c1cc2c(ccn2C)n1CC(=O)N1CCC(Cc2ccccc2)CC1`, which “hERG current change (%, negative = inhibition) at 10uM” value is on record?
The value was -24.1%.

Which “hERG current change (%, negative = inhibition) at 10uM” value does the source give for `COC(=O)CCN1CCN(S(=O)(=O)c2ccccc2Br)CC1.O=C(O)C(=O)O` here?
Its value is 1.85%.

`CC1=CC(C)=[NH+]c2ccccc2N1.O.[Cl-]` was tested. Which “hERG current change (%, negative = inhibition) at 10uM” value did it give?
Its value is 9.17%.

For `COc1ccc(OCc2nnc(SCC(=O)N(C)Cc3ccccc3)n2N)cc1`, which “hERG current change (%, negative = inhibition) at 10uM” value is on record?
The value was 2.58%.

With `Oc1c(Br)cc(Br)cc1C=Nc1ccc2c(c1)OCO2` as the molecule, how does the “hERG current change (%, negative = inhibition) at 10uM” value read?
Its value is 6.62%.

How did the “hERG current change (%, negative = inhibition) at 10uM” value turn out when `COC(=O)c1cc(S(=O)(=O)Nc2cccc(C)c2C)cn1C` was run?
The value was 13.1%.

`CCOc1ccc(S(=O)(=O)Nc2ccc(C(=O)NCCCN3CCCC3=O)cc2)cc1` was tested. Which “hERG current change (%, negative = inhibition) at 10uM” value did it give?
The value was 0.2%.

With `COc1ccc(COC(=O)N/N=C/c2cccs2)cc1` as the molecule, how does the “hERG current change (%, negative = inhibition) at 10uM” value read?
Its value is -8.61%.

With `COc1ccc2oc(C(=O)NC3CCCCC3)c(C)c2c1` as the molecule, how does the “hERG current change (%, negative = inhibition) at 10uM” value read?
The value was -0.357%.

Which “hERG current change (%, negative = inhibition) at 10uM” value does the source give for `Cc1ccc2c(c1)C(N1CCCC1=O)CC(c1ccco1)N2` (centres unmarked) here?
The value was -10.3%.

Which “hERG current change (%, negative = inhibition) at 10uM” value does the source give for `CCCNC(=O)CN1CCC(c2nc3ccccc3[nH]2)CC1` here?
Its value is 15.6%.

Which “hERG current change (%, negative = inhibition) at 10uM” value does the source give for `CN(C)c1ccc(S(=O)(=O)NCC(=O)OCC(=O)Nc2cccc(Cl)c2)cc1[N+](=O)[O-]` here?
The value was -8.27%.

With `COc1ccc(OC)c(NC(=O)CSc2nnnn2-c2ccccc2F)c1` as the molecule, how does the “hERG current change (%, negative = inhibition) at 10uM” value read?
The value was 8.51%.

Which “hERG current change (%, negative = inhibition) at 10uM” value does the source give for `Cc1ccc(-n2[nH]c(C)c(/C=N/Nc3ccc([N+](=O)[O-])cc3[N+](=O)[O-])c2=O)cc1` here?
The value was 23.9%.

For `COC(=O)c1sccc1NC(=O)c1csc(C)c1`, which “hERG current change (%, negative = inhibition) at 10uM” value is on record?
The value was -13.3%.

Which “hERG current change (%, negative = inhibition) at 10uM” value does the source give for `C/C(CS(=O)(=O)c1ccccc1)=N\O` here?
Its value is 16.1%.

With `COCCCn1cnc2oc3nc4ccccc4nc3c2c1=O` as the molecule, how does the “hERG current change (%, negative = inhibition) at 10uM” value read?
The value was -11.7%.

`C=CCOc1ccc(CNc2nn[nH]n2)cc1OC` was tested. Which “hERG current change (%, negative = inhibition) at 10uM” value did it give?
The value was 7.39%.

With `Cc1onc(-c2ccccc2)c1C(=O)N1CCc2ccccc21` as the molecule, how does the “hERG current change (%, negative = inhibition) at 10uM” value read?
Its value is 14.4%.

How did the “hERG current change (%, negative = inhibition) at 10uM” value turn out when `O=C(Nc1ccccc1)N(CCN1CCOCC1)Cc1cccc(Cl)c1` was run?
Its value is -22.7%.

Which “hERG current change (%, negative = inhibition) at 10uM” value does the source give for `Cc1n[nH]c(=O)c2c1nnn2Cc1ccccc1Cl` here?
Its value is 9.83%.

For `Cc1ccc(CN2CC(C(=O)N3CCN(S(=O)(=O)c4cccc(F)c4)CC3)CC2=O)cc1` (centres unmarked), which “hERG current change (%, negative = inhibition) at 10uM” value is on record?
The value was -32.6%.

How did the “hERG current change (%, negative = inhibition) at 10uM” value turn out when `Cc1cc(=O)oc2cc(OCC(=O)N3CCN(C(=O)C4COc5ccccc5O4)CC3)c(Cl)cc12` (centres unmarked) was run?
Its value is -48%.

For `CCOc1ccccc1N(CC(=O)Nc1cccc(OC)c1)S(=O)(=O)c1ccccc1`, which “hERG current change (%, negative = inhibition) at 10uM” value is on record?
Its value is 9.84%.

For `O=C(O)c1cccc(Nc2nc(-c3ccc([N+](=O)[O-])cc3)nc3ccccc23)c1`, which “hERG current change (%, negative = inhibition) at 10uM” value is on record?
The value was 7.86%.

How did the “hERG current change (%, negative = inhibition) at 10uM” value turn out when `O=C(Cn1c(=O)n(-c2ccccc2)c(=O)c2oc3ccccc3c21)Nc1ccccc1` was run?
Its value is 4.87%.

`CNc1ccn(C2CCCO2)c(=O)n1` (centres unmarked) was tested. Which “hERG current change (%, negative = inhibition) at 10uM” value did it give?
The value was 17.9%.

`Cc1ccc(C(=O)/C=C\C(=O)c2ccc(C)cc2)cc1` was tested. Which “hERG current change (%, negative = inhibition) at 10uM” value did it give?
The value was 27.3%.

`O=C(Cc1ccc(Cl)cc1)N/N=C/c1cccc(O)c1` was tested. Which “hERG current change (%, negative = inhibition) at 10uM” value did it give?
Its value is -28.2%.

With `Cc1ccc(C(=O)N2CCN(c3ccc(NC(=O)c4cccnc4Cl)cc3)CC2)cc1` as the molecule, how does the “hERG current change (%, negative = inhibition) at 10uM” value read?
The value was -27.8%.

With `Cc1ccc2cc(C(c3nnnn3C3CCCC3)N3CCOCC3)c(=O)[nH]c2c1C` (centres unmarked) as the molecule, how does the “hERG current change (%, negative = inhibition) at 10uM” value read?
The value was -9.02%.

Which “hERG current change (%, negative = inhibition) at 10uM” value does the source give for `Cc1cccc(Nc2nc(-c3sc(C)nc3C)cs2)c1` here?
Its value is 9.95%.

`CN(Cc1ccccc1)C(=O)c1ccc(NC2=NC3CS(=O)(=O)CC3S2)cc1` (centres unmarked) was tested. Which “hERG current change (%, negative = inhibition) at 10uM” value did it give?
The value was -7.2%.

`CCOc1ccc2nc(N(CCN(CC)CC)C(=O)c3cccc([N+](=O)[O-])c3)sc2c1.Cl` was tested. Which “hERG current change (%, negative = inhibition) at 10uM” value did it give?
The value was -59.5%.

How did the “hERG current change (%, negative = inhibition) at 10uM” value turn out when `CC(C)c1ccc(C2C(C(=O)c3ccco3)=C(O)C(=O)N2CCN2CCOCC2)cc1` (centres unmarked) was run?
Its value is 18.5%.

`CC(=O)c1cccc(OCc2cc(C(=O)N(C)C(C)c3ccccn3)no2)c1` (centres unmarked) was tested. Which “hERG current change (%, negative = inhibition) at 10uM” value did it give?
The value was -4.32%.

With `Cc1[nH]c2ccccc2c1SCc1ccccc1` as the molecule, how does the “hERG current change (%, negative = inhibition) at 10uM” value read?
Its value is -23%.

For `CCS(=O)(=O)N1CCCC(C(=O)NCc2ccccc2Cl)C1` (centres unmarked), which “hERG current change (%, negative = inhibition) at 10uM” value is on record?
The value was -3.54%.

Which “hERG current change (%, negative = inhibition) at 10uM” value does the source give for `Cc1ccc2c(c1)N(CC(=O)N(Cc1ccccn1)Cc1ccco1)C(=O)C(C(C)C)O2` (centres unmarked) here?
The value was -41.2%.
